This is one part of the list. Single values are uncertain, as repeats are few or missing.
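Note: cells treated in 1,536-well plates, then fixed and DAPI-stained, with nuclei counted from automated high-throughput microscope images.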

In the test the test system is A101D. The test can be described thus: cell count relative to DMSO control; melanoma cells; higher = more viable cells. The note with it: library dose: standard library concentration; 72 h.
As for `O=c1[nH]nc(Sc2ncc([N+](=O)[O-])s2)n1-c1ccc2c(c1)OCCO2` + CN(C)S(=O)(=O)c1ccc2c(c1)/C(=C/c1cc3c([nH]1)CCCC3)C(=O)N2 [SU6656] (first compound 1 µM, partner dose 2 µM), the cell count stood at 65%.
In turn, `O=c1[nH]nc(Sc2ncc([N+](=O)[O-])s2)n1-c1ccc2c(c1)OCCO2` + CNC(=O)c1cc(Oc2ccc(NC(=O)Nc3ccc(Cl)c(C(F)(F)F)c3)cc2)ccn1 [sorafenib] (first compound 1 µM, partner dose 2 µM) gave a cell count of 101%.
With `O=c1[nH]nc(Sc2ncc([N+](=O)[O-])s2)n1-c1ccc2c(c1)OCCO2` + Nc1ncn([C@H]2C[C@H](O)[C@@H](CO)O2)c(=O)n1 [decitabine] (first compound 1 µM, partner dose 0.5 µM) the figure was 76.5%; with `COc1cc(Nc2ncc(F)c(Nc3ccc4c(n3)NC(=O)C(C)(C)O4)n2)cc(OC)c1OC` [Tamatinib] + Cc1cc(N2CCOCC2)cc2[nH]c(-c3c(NC[C@@H](O)c4cccc(Cl)c4)cc[nH]c3=O)nc12 [BMS536924] (first compound 2 µM, partner dose 1 µM), 20.7%; with `COc1cc(Nc2ncc(F)c(Nc3ccc4c(n3)NC(=O)C(C)(C)O4)n2)cc(OC)c1OC` [Tamatinib] + CN(C)S(=O)(=O)c1ccc2c(c1)/C(=C/c1cc3c([nH]1)CCCC3)C(=O)N2 [SU6656] (first compound 2 µM, partner dose 2 µM), 39.8%.
With `COc1cc(Nc2ncc(F)c(Nc3ccc4c(n3)NC(=O)C(C)(C)O4)n2)cc(OC)c1OC` [Tamatinib] + CO[C@@H]1[C@H](N(C)C(=O)c2ccccc2)C[C@H]2O[C@]1(C)n1c3ccccc3c3c4c(c5c6ccccc6n2c5c31)C(=O)NC4 [Midostaurin] (first compound 2 µM, partner dose 0.4 µM) the figure was 10.6%; with `O=c1[nH]nc(Sc2ncc([N+](=O)[O-])s2)n1-c1ccc2c(c1)OCCO2` + C=CCNC1=C2C[C@@H](C)C[C@H](OC)[C@H](O)[C@@H](C)/C=C(\C)[C@H](OC(N)=O)[C@@H](OC)/C=C\C=C(/C)C(=O)NC(=CC1=O)C2=O [Tanespimycin] (first compound 1 µM, partner dose 0.01 µM), 76.4%; with `O=C(O)c1ccc(-c2c[nH]c3ncc(-c4ccccc4)cc23)cc1C1CCCC1` + COc1cc2c(Oc3ccc4[nH]c(C)cc4c3F)ncnc2cc1OCCCN1CCCC1 [cediranib] (first compound 0.8 µM, partner dose 2 µM), 84.3%.
With `O=c1[nH]nc(Sc2ncc([N+](=O)[O-])s2)n1-c1ccc2c(c1)OCCO2` + CN1CCN(c2ccc3nc(-c4c(N)c5c(F)cccc5[nH]c4=O)[nH]c3c2)CC1 [Dovitinib] (first compound 1 µM, partner dose 0.5 µM) the figure was 64.3%; with `CC1(C)NC(=O)N(c2ccc([N+](=O)[O-])c(C(F)(F)F)c2)C1=O` [nilutamide] + Cc1ccc(NC(=O)c2cccc(N(C)C)c2)cc1NC(=O)c1ccc(O)cc1 [ZM336372] (first compound 5 µM, partner dose 10 µM), 97.1%; with `O=c1[nH]nc(Sc2ncc([N+](=O)[O-])s2)n1-c1ccc2c(c1)OCCO2` + Cn1sc(=O)n(Cc2ccccc2)c1=O [TDZD-8] (first compound 1 µM, partner dose 2 µM), 13.6%.
`COc1cc(Nc2ncc(F)c(Nc3ccc4c(n3)NC(=O)C(C)(C)O4)n2)cc(OC)c1OC` [Tamatinib] + NCC(=O)Nc1ccc(-n2nc(C(F)(F)F)cc2-c2ccc3c(ccc4ccccc43)c2)cc1 [OSU03012] (first compound 2 µM, partner dose 5 µM) yielded a cell count of 17.1%.
With `Cn1cncc1[C@@](N)(c1ccc(Cl)cc1)c1ccc2c(c1)c(-c1cccc(Cl)c1)cc(=O)n2C` [tipifarnib] + O=C(O)c1ccc(-c2c[nH]c3ncc(-c4ccccc4)cc23)cc1C1CCCC1 [GSK650394] (first compound 0.05 µM, partner dose 0.8 µM) the figure was 65.8%.
To `CC1(C)NC(=O)N(c2ccc([N+](=O)[O-])c(C(F)(F)F)c2)C1=O` [nilutamide] + CO[C@@H]1[C@H](N(C)C(=O)c2ccccc2)C[C@H]2O[C@]1(C)n1c3ccccc3c3c4c(c5c6ccccc6n2c5c31)C(=O)NC4 [Midostaurin] (first compound 5 µM, partner dose 0.4 µM) belongs 60.4%.
To `COc1cc(Nc2ncc(F)c(Nc3ccc4c(n3)NC(=O)C(C)(C)O4)n2)cc(OC)c1OC` [Tamatinib] + CC1(C)NC(=O)N(c2ccc([N+](=O)[O-])c(C(F)(F)F)c2)C1=O [nilutamide] (first compound 2 µM, partner dose 5 µM) belongs 19.6%; to `O=c1[nH]nc(Sc2ncc([N+](=O)[O-])s2)n1-c1ccc2c(c1)OCCO2` + NC1(c2ccc(-c3nc4ccn5c(=O)[nH]nc5c4cc3-c3ccccc3)cc2)CCC1 [MK2206] (first compound 1 µM, partner dose 2 µM), 74.1%.
Regarding `O=c1[nH]nc(Sc2ncc([N+](=O)[O-])s2)n1-c1ccc2c(c1)OCCO2` + CCN(CC)CCNC(=O)c1c(C)[nH]c(/C=C2\C(=O)Nc3ccc(F)cc32)c1C [sunitinib] (first compound 1 µM, partner dose 2 µM), the cell count was determined as 64.9%.
In turn, `O=c1[nH]nc(Sc2ncc([N+](=O)[O-])s2)n1-c1ccc2c(c1)OCCO2` + Cn1c(=O)n(-c2ccc(C(C)(C)C#N)cc2)c2c3cc(-c4cnc5ccccc5c4)ccc3ncc21 [NVP-BEZ235] (first compound 1 µM, partner dose 0.02 µM) registered a cell count of 60%.
With `C[C@@H]1CCN(C(=O)CC#N)C[C@@H]1N(C)c1ncnc2[nH]ccc12` + COc1cc2c(Oc3ccc4[nH]c(C)cc4c3F)ncnc2cc1OCCCN1CCCC1 [cediranib] (first compound 5 µM, partner dose 2 µM) the figure was 90.3%.
As for `O=c1[nH]nc(Sc2ncc([N+](=O)[O-])s2)n1-c1ccc2c(c1)OCCO2` + COCC[n+]1c2c(n(Cc3cnccn3)c1C)C(=O)c1ccccc1C2=O [YM155] (first compound 1 µM, partner dose 0.002 µM), the cell count amounted to 67.1%.
Turning to `O=c1[nH]nc(Sc2ncc([N+](=O)[O-])s2)n1-c1ccc2c(c1)OCCO2` + CC(C)(C)c1cnc(CSc2cnc(NC(=O)C3CCNCC3)s2)o1 [SNS-032] (first compound 1 µM, partner dose 0.05 µM), the cell count amounted to 74.5%.
With `O=c1[nH]nc(Sc2ncc([N+](=O)[O-])s2)n1-c1ccc2c(c1)OCCO2` + O=C(O)c1ccc(-c2c[nH]c3ncc(-c4ccccc4)cc23)cc1C1CCCC1 [GSK650394] (first compound 1 µM, partner dose 0.8 µM) the figure was 76.6%; with `O=c1[nH]nc(Sc2ncc([N+](=O)[O-])s2)n1-c1ccc2c(c1)OCCO2` + C#Cc1cccc(Nc2ncnc3cc(OCCOC)c(OCCOC)cc23)c1 [erlotinib] (first compound 1 µM, partner dose 4 µM), 57.6%.
To `CC1(C)NC(=O)N(c2ccc([N+](=O)[O-])c(C(F)(F)F)c2)C1=O` [nilutamide] + C[C@@H]1CCN(C(=O)CC#N)C[C@@H]1N(C)c1ncnc2[nH]ccc12 [CP690550] (first compound 5 µM, partner dose 5 µM) belongs 97.3%.
To `O=c1[nH]nc(Sc2ncc([N+](=O)[O-])s2)n1-c1ccc2c(c1)OCCO2` + CC(=O)c1c(C)c2cnc(Nc3ccc(N4CCNCC4)cn3)nc2n(C2CCCC2)c1=O [palbociclib] (first compound 1 µM, partner dose 0.2 µM) belongs 62.7%; to `O=C(Nc1cccc(Cl)c1)Nc1ncc(CCNc2ncnc3ccsc23)s1` + CN(C)S(=O)(=O)c1ccc2c(c1)/C(=C/c1cc3c([nH]1)CCCC3)C(=O)N2 [SU6656] (first compound 0.004 µM, partner dose 2 µM), 74.9%.
On to `O=C(Nc1cccc(Cl)c1)Nc1ncc(CCNc2ncnc3ccsc23)s1` + NCC(=O)Nc1ccc(-n2nc(C(F)(F)F)cc2-c2ccc3c(ccc4ccccc43)c2)cc1 [OSU03012] (first compound 0.004 µM, partner dose 5 µM), for which the cell count is 74.7%.
Regarding `O=c1[nH]nc(Sc2ncc([N+](=O)[O-])s2)n1-c1ccc2c(c1)OCCO2` + C=C(c1ccc(C(=O)O)cc1)c1cc2c(cc1C)C(C)(C)CCC2(C)C [Bexarotene] (first compound 1 µM, partner dose 10 µM), the cell count amounted to 111%.
To `O=c1[nH]nc(Sc2ncc([N+](=O)[O-])s2)n1-c1ccc2c(c1)OCCO2` + O=C(CCCCCCC(=O)Nc1ccccc1)NO [vorinostat] (first compound 1 µM, partner dose 0.4 µM) belongs 84.2%; to `COc1cc(Nc2ncc(F)c(Nc3ccc4c(n3)NC(=O)C(C)(C)O4)n2)cc(OC)c1OC` [Tamatinib] + Cc1ccc(NC(=O)c2cccc(N(C)C)c2)cc1NC(=O)c1ccc(O)cc1 [ZM336372] (first compound 2 µM, partner dose 10 µM), 43.4%; to `O=c1[nH]nc(Sc2ncc([N+](=O)[O-])s2)n1-c1ccc2c(c1)OCCO2` + Cc1cn(-c2cc(NC(=O)c3ccc(C)c(Nc4nccc(-c5cccnc5)n4)c3)cc(C(F)(F)F)c2)cn1 [nilotinib] (first compound 1 µM, partner dose 1 µM), 87.5%.

Source of the values: the supplement of paper PMC4604168 (melanoma cell lines).
